Reference: ChEMBL document CHEMBL4888484, “Replenishing the malaria drug discovery pipeline: Screening and hit evaluation of the MMV Hit Generation Library 1 (HGL1) against asexual blood stage Plasmodium falciparum ,using a nano luciferase reporter read-out” (2022)
In all, about 150,000 compounds went through this assay and about 540 (0.36%) showed an effect of 50% or more. The list shows a part of the results.

Each compound was assayed on Plasmodium falciparum (assay: Primary screen in NF54 nanoGlo assay, in single point, at 2uM, 72h; a lower Z score goes with more inhibition). Settings: timepoint 72 hour.
Assay type: functional, Erythrocyte
CC12C(=O)N(c3cccc4ccccc34)C(=O)C1C1c3ccccc3C2c2ccccc21 (stereo unspecified) was tested, and the “% Inhibition” value was -2% and the Z score was 0.33. With Cc1cn2nnc(C(=O)Nc3ccccc3CCc3ccccn3)c2c(=O)[nH]1 the “% Inhibition” value was -2% and the Z score was 0.33. O=C(c1ncccc1O)N1CCC[C@@]2(CO)CN(c3cnccn3)CC[C@H]12 was tested, and the “% Inhibition” value was -8% and the Z score was 1.27. Cc1csc(C(=O)NC[C@]2(O)CCOC2)c1 was tested, and the “% Inhibition” value was -6% and the Z score was 1.17. For O=C(CCCc1c[nH]c2ccccc12)N1CCc2ccccc2C1, the “% Inhibition” value was -6% and the Z score was 0.54. In the case of CC1CN(C(=O)c2c(F)ccc(O)c2F)CC(C)[S+]1[O-] (stereo unspecified), the “% Inhibition” value was 4% and the Z score was -0.61. Cc1cc(C(=O)N(Cc2ccccc2)C2CC2)on1 was tested, and the “% Inhibition” value was -11% and the Z score was 1.5. For CCC(=O)N1C(C(=O)NCC2CCCO2)COC12CCC(C)CC2 (stereo unspecified), the “% Inhibition” value was -1% and the Z score was 0.09. With CCn1c(-c2ncccn2)nnc1N1CCC(OC(C)C)CC1 the “% Inhibition” value was -7% and the Z score was 1.24. In the case of O=C(N[C@H]1CCN(Cc2ccccc2)C1)N1CCC(c2cccc(O)c2)CC1, the “% Inhibition” value was -4% and the Z score was 0.81. With CCOC1c2ccccc2NC(c2ccccc2)C1(C)C (stereo unspecified) the “% Inhibition” value was 8% and the Z score was -1.49. For O=C(N[C@H]1Cc2cncn2C1)c1ncccc1OCC(F)(F)F, the “% Inhibition” value was -5% and the Z score was 0.76. In the case of CC(C)(C)OC(=O)N1CCC(CC(=O)N2CC[C@H](OCC3CC3)C2)CC1, the “% Inhibition” value was -9% and the Z score was 1.38. Cc1ncnc(N2CCN(C(=O)NCc3noc(C(C)C)n3)CC2)c1C was tested, and the “% Inhibition” value was -8% and the Z score was 1.01. O=C(OCc1ccccc1)c1cccc(N[C@H]2CCNC2=O)c1 was tested, and the “% Inhibition” value was -7% and the Z score was 0.99. Clc1ccc(-c2noc(CN3CCC4(CC3)OCCO4)n2)cc1 was tested, and the “% Inhibition” value was -12% and the Z score was 1.05. CNC(=O)[C@@H]1C[C@@H](NC(=O)COc2ccccc2)CN1Cc1c[nH]cn1 was tested, and the “% Inhibition” value was -19% and the Z score was 1.69. With O=C(Nc1ccccc1F)c1nnc(CNS(=O)(=O)c2ccc(F)cc2)s1 the “% Inhibition” value was 14% and the Z score was -1.63. For COc1ccc(-n2nc(C)c3sc(N4CCN(C(=O)c5cc(OC)cc(OC)c5)CC4)nc32)cc1, the “% Inhibition” value was -7% and the Z score was 0.81. In the case of Oc1ccc(Br)c(CN2CCC(c3ccn[nH]3)CC2)c1, the “% Inhibition” value was -1% and the Z score was 0.15. With Cn1cncc1-c1noc(-c2ccccc2)n1 the “% Inhibition” value was -1% and the Z score was 0.17. With CCc1cc(N2CCc3c(c(C(N)=O)nn3C)C2)nc(N2CCCC2)n1 the “% Inhibition” value was -1% and the Z score was 0.28. With O=C(CCn1c(=O)[nH]c2cc3c(cc2c1=O)OCO3)N[C@H]1CCc2ccccc21 the “% Inhibition” value was -16% and the Z score was 2.51. CCO[C@H]1CN(c2nnnn2-c2ccccc2)C[C@@H]1O was tested, and the “% Inhibition” value was -3% and the Z score was 0.5. In the case of COc1ccc(CN2CCC[C@@](O)(CO)C2)cc1OCc1ccccc1F, the “% Inhibition” value was 0% and the Z score was 0.01. Cc1cnccc1C(=O)N1C[C@@H]2[C@H](C1)[C@H]2NC(=O)c1cnccc1C(F)(F)F was tested, and the “% Inhibition” value was 21% and the Z score was -2.62. For Cc1n[nH]c(C)c1C(=O)NCCn1ccc2ccoc2c1=O, the “% Inhibition” value was -4% and the Z score was 0.68. In the case of Cn1nccc1S(=O)(=O)N1CCC(c2ccc(F)cn2)CC1, the “% Inhibition” value was -4% and the Z score was 0.52. For CC(C)[C@H](NC(=O)C(c1ccccc1)c1ccccc1)C(=O)NC1CCS(=O)(=O)C1 (stereo partly specified), the “% Inhibition” value was -8% and the Z score was 0.83. In the case of CC(=O)N[C@@H](C)Cc1nc(COc2ccccc2)nn1-c1ccncc1, the “% Inhibition” value was -5% and the Z score was 0.91. For O=C(NC/C=C/c1ccccc1)c1cnoc1-c1ccccc1, the “% Inhibition” value was 0% and the Z score was -0.05. For COc1cccc(CN2CCC[C@@]3(CCN(Cc4cccc(C)c4)C3)C2=O)c1, the “% Inhibition” value was -13% and the Z score was 1.18. With CCCC(=O)N1CCc2cn(C)c3cccc(c23)C1 the “% Inhibition” value was -21% and the Z score was 2.03. Cc1nccnc1CCN1C(=O)C2CC3CCCCC3N2C1=O (stereo unspecified) was tested, and the “% Inhibition” value was -10% and the Z score was 1.85. With O=C(c1cnc[nH]1)N1CCCN(c2ccc(-c3ccccc3)nn2)CC1 the “% Inhibition” value was -3% and the Z score was 0.51. CO[C@@]12CC[C@H](OCC3CC3)C[C@@H]1N(C(=O)COc1ccc(C)cc1)CC2 was tested, and the “% Inhibition” value was -5% and the Z score was 0.76. For CC(C)Oc1ccc(C(=O)Nc2ccc(-n3nnn(CC(N)=O)c3=O)cc2)cc1, the “% Inhibition” value was -28% and the Z score was 5.41. In the case of Cn1c(-c2ccccn2)nn(CC(=O)N2CCCc3ccccc32)c1=O, the “% Inhibition” value was 13% and the Z score was -1.46. For Cc1nc(N)sc1-c1ccn(C2CCN(C)CC2)n1, the “% Inhibition” value was -16% and the Z score was 2.48. In the case of O=C(Nc1ccc(-c2ccccn2)cn1)c1cccnc1, the “% Inhibition” value was -8% and the Z score was 1.19. With O=C(CCc1cccc(Cl)c1)N1CC[C@H](N2CCc3ccccc3C2)C1 the “% Inhibition” value was -5% and the Z score was 0.72. For Cc1cc(OC2CCN(S(=O)(=O)N3CCCC3)CC2)nc(C)n1, the “% Inhibition” value was -8% and the Z score was 1.54. With Cc1ccc(O)c(C(=O)N2C[C@H](C(=O)O)[C@@H](c3ccc4c(c3)OCO4)C2)c1 the “% Inhibition” value was -10% and the Z score was 1.26. CC1CC(n2nnc3c2CN(Cc2cccc(C(=O)O)c2)CC3)C1 (stereo unspecified) was tested, and the “% Inhibition” value was -3% and the Z score was 0.55. In the case of Cc1cnc(C(=O)O[C@H](c2ccccc2)c2nc(C)no2)cn1, the “% Inhibition” value was -11% and the Z score was 2.16. With C=CCc1ccccc1OCCN(C)Cc1ncnn1CC the “% Inhibition” value was -9% and the Z score was 1.5. With O=C(Nc1nc(CC(=O)N2CCc3ccccc3C2)cs1)c1ccco1 the “% Inhibition” value was -23% and the Z score was 2.97. For COc1cccc(C2=NO[C@H](c3nc(-c4ccncc4)no3)C2)c1, the “% Inhibition” value was 10% and the Z score was -0.96. N#Cc1c(-c2ccncc2)cc(-c2cc(CC(=O)O)cs2)nc1N was tested, and the “% Inhibition” value was -8% and the Z score was 0.98. In the case of COc1ccc2c(c1)CCc1cnc(-n3ncc(C(=O)N4CC[C@H](N(C)C)C4)c3C3CC3)nc1-2, the “% Inhibition” value was -3% and the Z score was 0.52. With Cc1cccc(CN2CCc3nc(N4CCC(C)CC4)ncc3C2)c1 the “% Inhibition” value was -4% and the Z score was 0.52. With C[C@@H](c1ccccc1F)N1CCC(C(=O)Nc2ncccn2)CC1 the “% Inhibition” value was -3% and the Z score was 0.41. With CN(C)c1cccc(C(=O)N2CCC(N3C(=O)CNC3=O)CC2)c1 the “% Inhibition” value was -16% and the Z score was 2.96. In the case of Cc1ccc(Oc2c(CN(CC(O)COCC(C)C)CC3CCCO3)c(-c3ccccc3)nn2C)cc1 (stereo unspecified), the “% Inhibition” value was -11% and the Z score was 1.61. For CCCC1(CNC(=O)[C@H]2CCCN(C3CCN(Cc4ccncc4)CC3)C2)CCC1, the “% Inhibition” value was -16% and the Z score was 1.89. Cc1noc(C2(C)CCN(Cc3cncnc3)CC2)n1 was tested, and the “% Inhibition” value was -4% and the Z score was 0.69. In the case of COc1ccc(C(=O)N[C@H]2CO[C@H]3[C@@H]2OC[C@@H]3Nc2nccc(-c3ccc(N(C)C)cc3)n2)cc1, the “% Inhibition” value was 14% and the Z score was -1.64. With Cc1ccn(C)c1C(=O)N(C)CCN(C)C(=O)c1c(C)ccn1C the “% Inhibition” value was -5% and the Z score was 0.49. With COC1CCCC1C1COCCN1S(=O)(=O)c1ccc(C(N)=O)cc1 (stereo unspecified) the “% Inhibition” value was -7% and the Z score was 1.09. CC1CC(NC(=O)OC(C)(C)C)CCN1C(=O)OC(C)(C)C (stereo unspecified) was tested, and the “% Inhibition” value was -5% and the Z score was 0.79. In the case of CCCC[C@H](CC)COCc1cccc(N)c1, the “% Inhibition” value was -15% and the Z score was 1.96. With CNC(=O)[C@H](C)S(=O)(=O)c1cccc(OC)c1 the “% Inhibition” value was -2% and the Z score was 0.25. In the case of Cc1noc(CO[C@H]2CCCN(C(=O)NCc3ccccc3)C2)n1, the “% Inhibition” value was 6% and the Z score was -0.83. For Cc1nnc(CNC(=O)C[C@H](C)c2cccc(C(F)(F)F)c2)n1C, the “% Inhibition” value was -9% and the Z score was 1.62. With C[C@@H]1CN(C[C@@H]2CN(C(=O)c3ccc4nccnc4c3)C[C@@H]2CO)C[C@H](C)O1 the “% Inhibition” value was -12% and the Z score was 1.7. In the case of CN(C)C(=O)[C@]12CCS(=O)(=O)N(C)[C@@H]1CCN(C(=O)CCc1c[nH]c3ccccc13)C2, the “% Inhibition” value was 0% and the Z score was -0.02. For O=C(Nc1cc(Cl)ccc1OCC1CCC1)N1CCC(c2ccn[nH]2)CC1, the “% Inhibition” value was 5% and the Z score was -0.7. With O=C(c1ccccc1)N(CCN1CCCC1)C1CCOCC1 the “% Inhibition” value was 2% and the Z score was -0.28. For O=C(Nc1ccc2c(c1)OCO2)N1C[C@@H]2CC[C@H]1CNC2, the “% Inhibition” value was 1% and the Z score was -0.2. In the case of Cc1cc(C(=O)NC[C@@]2(c3cnn(C)c3)CCCO2)ncn1, the “% Inhibition” value was -2% and the Z score was 0.19. For CCc1cc(NC2CCOC2C)n(C)n1 (stereo unspecified), the “% Inhibition” value was -20% and the Z score was 2.03. CC1=C[C@@H](C)CN(S(=O)(=O)c2c(C)nn(C)c2C)C1 was tested, and the “% Inhibition” value was -12% and the Z score was 1.05. With CN1CCCC(C(=O)NC2CCCc3ccccc32)C1 (stereo unspecified) the “% Inhibition” value was -9% and the Z score was 0.8. For CCc1ccc(-n2ccc3c(nnc4ncnn43)c2=O)cc1, the “% Inhibition” value was 2% and the Z score was -0.35. CCc1cc(C#N)ccc1NC(=O)c1cccc(CN2CCNC(=O)C2)c1 was tested, and the “% Inhibition” value was -5% and the Z score was 0.73. In the case of COc1ccc(-c2cccc(C(=O)N3CCC4(CCCC4)C3)c2)cc1C(C)=O, the “% Inhibition” value was -3% and the Z score was 0.55. For O=C1CC[C@@]2(CCCN(C(=O)c3cccnc3)C2)CN1CCc1c[nH]cn1, the “% Inhibition” value was -6% and the Z score was 1.18. In the case of CN(C)c1ccccc1CN(CCC#N)C1CC1, the “% Inhibition” value was -2% and the Z score was 0.19. Cc1c(Cl)cccc1NC(=O)CC(=O)N1CCC[C@H](CN2CCN(C)CC2)C1 was tested, and the “% Inhibition” value was -2% and the Z score was 0.39. In the case of Cc1cc(NC(=O)c2cc(C3CC3)on2)ccc1N1CCCC1=O, the “% Inhibition” value was 6% and the Z score was -0.89. In the case of CC(=O)N1C[C@@H]2OC(=O)N(C3CCN(C(=O)c4ccc5cccnn45)CC3)[C@@H]2C1, the “% Inhibition” value was -10% and the Z score was 1.55. In the case of CC(NCC(=O)Nc1ccncc1)C(C)n1cccn1 (stereo unspecified), the “% Inhibition” value was -9% and the Z score was 1.25. With O=C(N1CCC[C@H](Oc2ccc(Cl)cn2)C1)C1(O)CCC1 the “% Inhibition” value was -11% and the Z score was 1.48.
